Measurements taken from the supplement of paper PMC10681739.
± gives the standard deviation of the averaged measurements. The full ranking holds about 4,100 sequences; the median of “arbitrary fluorescence units” is about 780, and the highest 2% start at about 22,000. The list shows a part of the results.

These sequences were tested against T1, ETS1 (UniProt P14921) (assay: ETS1 binding intensity (PBM fluorescence), ETS1 alone (arbitrary fluorescence units); higher = stronger binding). Details: ETS1 concentration 1 nM; RUNX1 concentration 0 nM.
T1 sequence: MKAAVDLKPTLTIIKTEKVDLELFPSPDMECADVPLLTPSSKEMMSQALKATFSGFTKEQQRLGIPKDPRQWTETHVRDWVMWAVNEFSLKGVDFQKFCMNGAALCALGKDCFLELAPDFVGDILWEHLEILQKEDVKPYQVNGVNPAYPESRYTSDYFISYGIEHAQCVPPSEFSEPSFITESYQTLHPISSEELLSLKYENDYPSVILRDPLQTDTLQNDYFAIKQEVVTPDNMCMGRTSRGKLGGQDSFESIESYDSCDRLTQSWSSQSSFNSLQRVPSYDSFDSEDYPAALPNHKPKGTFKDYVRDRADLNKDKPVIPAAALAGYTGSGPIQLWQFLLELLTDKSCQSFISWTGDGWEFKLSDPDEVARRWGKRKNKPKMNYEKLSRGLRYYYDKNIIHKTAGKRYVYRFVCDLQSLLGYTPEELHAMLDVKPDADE
Summary of the method: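 Full-length recombinant human ETS1 (1 nM, no RUNX1) was incubated, per standard PBM protocols, on double-stranded Agilent 4 × 180k arrays of 36-bp genomic probes whose RUNX1 partner site was mutated. Bound ETS1 was detected with anti-ETS1 antibody (Cell Signaling Technology 14069) and Alexa488-conjugated secondary antibody, then scanned on a GenePix 4400A. Binding level is spot fluorescence intensity, summarised over replicate spots (four printed per sequence) and not normalised.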

Sequence | ETS1 binding intensity
GCCCGGGCCGCCGCGAGGCTGTCTGGGAAATGTAGT | 365
CTCCTGTTCCGGCTCAAAGGGAATCCGCTGCTTTTC | 1530
GTATCATTTCCCAGCTAAGAGCCCCAGAGACTCTAA | 478
GGGGATGAGGGTCGGGAGGTAGTTCCGGGTGCGCGG | 692
TTCAAATACCAGAGCCCAATATTGGTATTTCCGAGC | 385
CTGGAGCCGTCCGGGTCTGGCCCCTTCGGCCGCGCA | 289
GCAGAGAGGAAGTGTGGGGGTGGAGGAGGCCGAAGA | 1840
GTTGTCTTCTTCCTGAGTAAATCGCAGTGCAGAGAA | 2080
ATATCCCTGTAGGTGAAAAACATGCCGGAAGTGAAA | 3030
CTCCTCAGCACACTGCTGCTGCCAGGAAGTGGGGGA | 676
TGCGAACCTTGTGACTTTGTCTGTTTCCTGTTTCAG | 1650
TGACGGCCAGGAAGCCTGAAGGCGCAGGGGCCGCCG | 478
CCAGAACAAATCACACCCCACTTCCTGTTGCATGCA | 9050
ACTAGAAGCGGAAGTAGTTGTAGGCGCCTTTGCAAC | 8620
GCTCTTCACTTCCTGTGGCTCCCTCAGCGGCCGCCG | 12400
CTCAGCTTGGGGCTCCGGTGTTTCCGTTTTGGGGTT | 868 ± 41
GGCACAGGCCGAAGGGCTGAGCCGGAAGCTCCTGCC | 676
CCGGTCGCTGAGTGATTGAGGCCGGAAGACAACGCT | 16300
GGGCAGGTGCTTCCTTCTCTCAGAAAGCACTCCTCC | 1120
GCTAAGCACCGACCTCGAAGCAGAGGAAGTGCAGTC | 484
CGGCCTAGGCTTCCTGGCGTTCCTGCAGGCCTCGGA | 1340
CTTTCTGGTTTCCTTCCTTTTTGGTCTTGGTTTCAT | 2030

Sequence | ETS1 binding intensity
TTGCTGTAGTTTAGTCTCTGCAGCTTCCTGTTGGCT | 1160
CCAAGTGTAAAACGGAAGCTCAACCCCGAATCTTAC | 2490
ACGCGCGCGGGGGAGGTGGCTTCTTCCGGCCGGGCC | 1860
TGAACTCACATAATCCGCCAAGGGGTTCCGGTGCGA | 588
GAAGGGGAAGTCCAGGAGCATGGGTGCTTTTTTTCC | 397
CCTCCTTCGGCCACGACACGATCACTTCCGGTTGGT | 13500
CGTTGCCACCCTCTTAAAGGAGCCCAGGAAGGAGGC | 382
TATCAGGCAGGCTTCCTTCAAGACCGTTGTTTTTGC | 464
AGGTTGGGGGAAAGCACTAAGAGGAAGCAGGGTTAG | 619
GTTGCAGGAAACGATGGGTTTTTTGGTATGAACTGC | 1830
CTGCCGCTTCCTGGGCTGAGTCCGCCCGCTGTCCCG | 3330
TGCGCCAGCGGGAGGGAGCAGTTCCGGGTACGGTGC | 563
ACTCTGAGGTGTGGCCCTGAGCAAGTTCCTTCCTGT | 485
GCACACAGTGCGTTTGGCTTCCAGCTTCCTGTTGGC | 936
TGACCTTTGGGGTTTGGTCAGGAAGTGGGGTACTGG | 549
GCAAGATCGCGCATTAACATCTCGGAAATGGACAGC | 469
CCCTGCCATTTCCTGCCCAATCCCGCGTATGCAACT | 17000
TCTTCGGGAGAGGCTGCAGCGGAGGCGGAAGCAGGA | 537
CTCCCAGCCGGGCGGAACCGAGACCGATTCGTCCCC | 372
GCTTCGTTTCCCGCCGGGGCTCGCCGCGCCCCCCTA | 1160
TGTTAGGATGTAAGACCGAAAGAGACACACCCTCAA | 393
CTCAATTCAGACCAGCAACACGGCCGGAAGCAACTC | 1920

Sequence | ETS1 binding intensity
CTCGTCAACGACACGTCACCCCGCCTACTTCCCGAC | 383
ACAGGAAACTAAAATAAGAACAGAACACCAAGACAG | 509
CCGGGCGCCACTTCCGGTCCCCGTGGACACGTGACC | 53800
GAAGGCGGTTCCGGTTCGCGGCGATTCCCGGGTTTT | 3850
TGTGTAATCCCCACGACAACCTAGGAAGTGGGAAAA | 410
CTCCCACTGGGGTTGCCCCCTTCCTCTCAGTGGCAC | 434
CTATTGTCGTATTAAAAAGAGAGGCTGGGGGAAGTG | 609
TTCTGTGTGATTACTTTAAATACCAAAAGGAAATGT | 608
TATCACGTTTCCTGCTGCTGCACCTCGACCTCAGCT | 5680
CCCACTCCACTTCCGCCACCGCCGAATCCGCCGCTG | 11700
CAGAGGAAGCCCACCCCATAAAAGAACGACAGATAA | 471
CTCCTTTGCCTGCAGCGGCTGGTCCGGTTTACATCA | 353
GGACCTGCACCCTGGTCCCGCGGGCCGGACGGAGGT | 343
AGGGGAGGCCTGTCGTTCTCACTTCCTGGCAGAGCT | 2020
GCAGCGCCTTAGAGCGCTCGGCCATCCTGACTGCTT | 262
CCAAACGCTTCCCGGTACGTGTTGCTGCGAGAACCC | 931
TAAAACACCAGGAAACTCTGTGCTGAGTGGGAGGTG | 483
ATTTGTCACCAAAGCACAGAGAGGAAATGATTGTAA | 640
GTGCAGCGCCCGAGGCCGAGAGAGGAAGTAGATCCC | 738
TTTACTGAGAGGAAGTGGTTCTTGTAGGTGAAGGTC | 1510
TGCAACGACAGGGGCGAAGAAGTCAGGAAATGCTGC | 432
ACTTTAGCGTACGGTAGATTTCCTAGATAACCTGAG | 475

Sequence | ETS1 binding intensity
TGTGATAAGGATGTTCGTGTGCCTTGTAGTCAGGTG | 398
CGAAGTCAGCGCGGCCAGAGAAAGGATGTGATATAG | 397
GAATTCGGGGGTGGGCACCCTATTCTCACTTCCCCT | 632
TCGCCAGCGGCAAACAGGCCACATCCCCAGCCCATC | 349
GTACGCTGGGCCGCTGTCCCTGCCGGGAAGTGTAGT | 334
GCCATCCAGGAAGTACAGACTCCCTGACAGCACTGA | 2850
CCTGCTTGCATGTAGTTCAGACATCCTGAGGTGGTA | 475
GGCAACCTGAGCTTCCGTGTAAAACTACAGTGTGAC | 938
CGGAGGCGGCCGGAAGTAGCGCTGCTGTTGGCAGCT | 12300
CACCCTGCCACTTCCCTAAACTCCCCGCGCAGGCCG | 1050
TGTCATCCCGGAAACTGATAACAAGACCTCGAGTCA | 4740
CCACCACCTACAGCAGCTGCAAACATCCTCCAGACC | 497
AAAGGCGGAAGGGGGGCAGGGAACTCACAAAACAGA | 1470
AAAGTCAAAATCACAGGAACAGGAAACTGTTCACTG | 1210
AACAGATCCTTCCTGGCCCCCACTAGCGACAGGTTT | 1610
TATTCAGGCTTCCGGGTGATGTTTATGGCCACCCGG | 5730
GTTAAGCTGCGCTCAGACCTAAGGGAGGATGTGGCT | 328
AGCTGGTTAGCCGGATAGAATGTGCGTGCCGAGGGC | 355
ACCTAATGGCCCCAATGGAGAACTGCAGGATGTAGA | 440
CCGGCGGCCTGCAGTGCATGCCGGGAAACGTAGTTC | 411
